{
  "source": "the supplement of paper PMC11417369",
  "note": "Some of the results follow.",
  "data": [
    {"test_system": "PfSIP2 AP2 domain 1 (GST-tagged)", "assay": "gcPBM binding intensity (ln(normalized median fluorescence intensity)); higher = stronger DNA binding", "how_it_was_run": "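For binding intensity, the highest Masliner-normalised natural-log median intensity across replicate spots of either probe orientation was taken. Protein bound to the array was stained with Alexa488 anti-GST antibody and scanned at 488 nm. The protein, GST-tagged P. falciparum DNA-binding domains from E. coli at about 25 μg on average, had been applied for 1 h to an Agilent 4 × 180k array of primer-extended double-stranded 36-bp intergenic genomic probes and negative controls.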", "values": [
      {"sequence": "TAAAAGTAGATATATACACACATAAATATAGATGTA [CACACA_site6457]", "gcPBM binding intensity (ln)": 6.78},
      {"sequence": "AGGAAAAAAAAAATGTGTACTTAAAAAAAAAAAATT [XGTACX_site1471]", "gcPBM binding intensity (ln)": 7.47},
      {"sequence": "AATAAATAAATATATACACACATATATCTGTACATA [CACACA_site9034]", "gcPBM binding intensity (ln)": 7.08},
      {"sequence": "CGTTTATATTTTAACTGTACTCAAAAAGTGCATTGT [XGTACX_site6072]", "gcPBM binding intensity (ln)": 8.36},
      {"sequence": "TTTTATCATATTTATTGTACACATAATATACATATC [XGTACX_site1145]", "gcPBM binding intensity (ln)": 7.23},
      {"sequence": "TGTATGTTTATTTATCGTACATATATATATATATAT [XGTACX_site7315]", "gcPBM binding intensity (ln)": 9.89},
      {"sequence": "TTTTATATATTATATACACACATATATATATATATA [CACACA_site2999]", "gcPBM binding intensity (ln)": 9.39},
      {"sequence": "CATTTTATAAAAAGCACACATATAGTTATATGCACA [CACACA_site3691]", "gcPBM binding intensity (ln)": 9.4},
      {"sequence": "TAAATTATAATAAATACACACAAATTATAATTCTAT [CACACA_site3942]", "gcPBM binding intensity (ln)": 6.88},
      {"sequence": "TTTGAATCCTTATATACACACATTATATAATATTAT [CACACA_site4472]", "gcPBM binding intensity (ln)": 7.42},
      {"sequence": "TATATATATATACATTGTACATTATTGATTATAACA [XGTACX_site1678]", "gcPBM binding intensity (ln)": 9.52},
      {"sequence": "AAATTAGAATTAGGAACACACATATTTATATTTATA [CACACA_site7450]", "gcPBM binding intensity (ln)": 6.8},
      {"sequence": "TTTATTCTCCGACACACACACATATATTTATTTATA [CACACA_site7377]", "gcPBM binding intensity (ln)": 7.2},
      {"sequence": "ATATATAAAAAATGTGGTACATTCATTTATTATACA [XGTACX_site3495]", "gcPBM binding intensity (ln)": 6.96},
      {"sequence": "AATATATAAGTCTACTGTACCCAAAATAAAATTTAT [XGTACX_site8727]", "gcPBM binding intensity (ln)": 7.08},
      {"sequence": "GTATATATACATAAATGTACATATATATAAAAAATG [XGTACX_site3271]", "gcPBM binding intensity (ln)": 7.01},
      {"sequence": "ATATATCCAAATAGATTACATATATATATATAGATA [TGCATGCA_negctrl_site277]", "gcPBM binding intensity (ln)": 7.23},
      {"sequence": "AAATATAATAAAATGACACACGCATATATATATATA [CACACA_site8900]", "gcPBM binding intensity (ln)": 9.24},
      {"sequence": "AACATTATAAGACACACACACACATATATAAATATA [CACACA_site6622]", "gcPBM binding intensity (ln)": 7.31},
      {"sequence": "ATATATTTATATATTGCACACAAAAAAAAAAAAAAA [CACACA_site8468]", "gcPBM binding intensity (ln)": 7.18},
      {"sequence": "AAATAAGAACATAGAATGCACTTTTTTTTTTTTTCC", "gcPBM binding intensity (ln)": 8.08},
      {"sequence": "TATTGCCCTTGACACACACACATATAAATAAATATA [CACACA_site7220]", "gcPBM binding intensity (ln)": 7.62},
      {"sequence": "TTATGGGACTCAAATACATGCAAAAATATTTTTAAG [TGCATGCA_site559]", "gcPBM binding intensity (ln)": 7},
      {"sequence": "TAAGGTTAAATAATATGTACATATTATTATATATAT [XGTACX_site6953]", "gcPBM binding intensity (ln)": 7.73},
      {"sequence": "TTAAACCGTGGGAGCACACACACACCCAGACACATA [CACACA_site4337]", "gcPBM binding intensity (ln)": 6.73},
      {"sequence": "AAATATGTATATATATATATATATATATATATATAT [GTGCAC_negctrl_site335]", "gcPBM binding intensity (ln)": 9.43},
      {"sequence": "CACGTGTAAATAGTTTTACAATATCTCGATATGTAT [CACACA_negctrl_site785]", "gcPBM binding intensity (ln)": 6.71},
      {"sequence": "GTAATTATATACATACGTACATACACATATGTATAT [XGTACX_site4149]", "gcPBM binding intensity (ln)": 7.17},
      {"sequence": "GGATATATGAAACATATTGAAAAACCGTTTAGTACA [CACACA_negctrl_site132]", "gcPBM binding intensity (ln)": 6.73},
      {"sequence": "TAATTTTTGTAAACAGTCATGGATTCAAAAAAAAAA [CACACA_negctrl_site593]", "gcPBM binding intensity (ln)": 6.69},
      {"sequence": "TTACTATGTAAACACACATGCAATATATGTTAAGCC [TGCATGCA_site253]", "gcPBM binding intensity (ln)": 6.91},
      {"sequence": "TTATATGAAAATTATTGTACAATCTATAAAAAAAAT [XGTACX_site4194]", "gcPBM binding intensity (ln)": 7.14},
      {"sequence": "TAATAATCAAACTATACACACATAAATAAATATATA [CACACA_site156]", "gcPBM binding intensity (ln)": 6.92},
      {"sequence": "AAGGAAATAAGAAAAAGTACACATAAGTATATAACA [XGTACX_site1173]", "gcPBM binding intensity (ln)": 7.02},
      {"sequence": "GTAGTAATAAATCTAGTGCATTATATATAACAAAAA [GTGCAC_site9803]", "gcPBM binding intensity (ln)": 8.27},
      {"sequence": "TTTTTTTCTTTTTTTTGTACTCATACATACTATCAT [XGTACX_site607]", "gcPBM binding intensity (ln)": 7.13},
      {"sequence": "AAAAATGTGCACACGCGTACACACAAAAAAAGAAAA [XGTACX_site4097]", "gcPBM binding intensity (ln)": 10},
      {"sequence": "AAAATATATCAAAATAGTACATAATTTTTTAAGAAT [XGTACX_site3515]", "gcPBM binding intensity (ln)": 6.95},
      {"sequence": "AATAAAGCAATAAATACACACATATATATATATATA [CACACA_site2934]", "gcPBM binding intensity (ln)": 9.48},
      {"sequence": "TATATAAAAAATAGGTGGTCAACTTAAATATTTTAT [XGTACX_site4495]", "gcPBM binding intensity (ln)": 7.16},
      {"sequence": "AGTTATGCATCTTAGGTGCTATGCCCAATTTATTTT [GTGCAC_site9977]", "gcPBM binding intensity (ln)": 9.21},
      {"sequence": "TTGCCTTAAAAAGGAACACACATGCTTTTTTTAGTT [CACACA_site938]", "gcPBM binding intensity (ln)": 6.68},
      {"sequence": "AAAAAAAAAAAAAATGCACACATATATTTCCATATA [CACACA_site8416]", "gcPBM binding intensity (ln)": 7.82},
      {"sequence": "AACTTACTCTTTACAAGTACGTAAAAGAAATAGAAA [XGTACX_site1782]", "gcPBM binding intensity (ln)": 7.15},
      {"sequence": "ATATACATTTTAAATTTTAATGTAACCCATGGGAGA [CACACA_negctrl_site588]", "gcPBM binding intensity (ln)": 6.84},
      {"sequence": "TGAACCCACAAATCACGTACATATATATACACGTGT [XGTACX_site7739]", "gcPBM binding intensity (ln)": 7.09},
      {"sequence": "TTTAACAACTATTTCTGTACACATTTTTATATAATT [XGTACX_site4917]", "gcPBM binding intensity (ln)": 7.22},
      {"sequence": "TATATACGTAATAGTAGTACTTTAAAATGCGGAAAT [XGTACX_site4597]", "gcPBM binding intensity (ln)": 7.36},
      {"sequence": "TGTACGAGTCGTAGAGTGCAGTCTGGAGAAACGTAC [GTGCAC_site9682]", "gcPBM binding intensity (ln)": 8.56},
      {"sequence": "ATTTATATTATGAGGAGTACAATACTTATAGATGTA [XGTACX_site7510]", "gcPBM binding intensity (ln)": 7.2},
      {"sequence": "ATAAATAACTTTTAAATACACACGTAAAATATATTG [CACACA_site3302]", "gcPBM binding intensity (ln)": 6.83},
      {"sequence": "AAAAAAGATATATAAACACACATATTTATATACACA [CACACA_site6866]", "gcPBM binding intensity (ln)": 6.7},
      {"sequence": "GATAGACACGTGCACACATGCAATACTTTATTCAGT [TGCATGCA_site778]", "gcPBM binding intensity (ln)": 9.2},
      {"sequence": "ATACCATATAATTATGTGAGAAAATATAATATTCAT [CACACA_negctrl_site310]", "gcPBM binding intensity (ln)": 6.93},
      {"sequence": "ATTTTCTTAAATAAATGTACATGGCATTAAAAGTAA [XGTACX_site5119]", "gcPBM binding intensity (ln)": 7.05},
      {"sequence": "TATTTGTATATTCATTCCTGTATTCCCTTTTTTGTA [CACACA_negctrl_site1236]", "gcPBM binding intensity (ln)": 6.93}
    ]}
  ]
}
